The assay deals with biotinylated MSLN (human) (human, UniProt Q13421 296-580, limits assumed, biotinylated). Nature of the assay: competition ELISA, blockade of biotinylated MSLN binding to coated MUC16. (ELISA stands for enzyme-linked immunosorbent assay.)

Consider 1 molecule from patent EP3915580A1 (Numab Therapeutics AG, dated 2021).

Sequence of UniProt Q13421 (Q13421 other isoform, or with tags, fused parts or gaps limits assumed): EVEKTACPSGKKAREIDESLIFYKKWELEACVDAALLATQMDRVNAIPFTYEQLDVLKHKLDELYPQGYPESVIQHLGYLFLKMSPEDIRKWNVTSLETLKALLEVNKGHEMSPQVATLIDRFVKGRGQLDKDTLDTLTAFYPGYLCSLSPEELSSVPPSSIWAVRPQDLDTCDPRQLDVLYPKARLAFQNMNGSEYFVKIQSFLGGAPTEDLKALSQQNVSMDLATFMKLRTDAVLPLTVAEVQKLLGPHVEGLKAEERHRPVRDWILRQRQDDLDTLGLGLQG

B1: Amatuximab (antibody, V domains shown)
VH: not shown
VL: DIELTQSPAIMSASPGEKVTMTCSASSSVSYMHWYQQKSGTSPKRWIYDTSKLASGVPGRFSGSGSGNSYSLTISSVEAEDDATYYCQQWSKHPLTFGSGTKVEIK
Take B1: the IC50 was determined as 0.014 nM.

One may read the IC50 as the midpoint of a concentration-inhibition curve. A high value points to weaker potency in that assay.
